# Experimental data reported in PubChem BioAssay AID504706 (National Center for Advancing Translational Sciences (NCATS), 2011).
# Screen size: about 320,000 compounds; about 200 (0.062%) were called active. The inconclusive results got no clear call from the source; some entries with a clear call stand among them for comparison. Calls come from the whole dose curve; as a rule, active = well fitted activation curve with a large enough effect; inconclusive = small, poorly fitted or top-dose-only effect; inactive = no such curve, though single readings can be large or run the other way. No potency is given beside an inconclusive call; the fits are too rough.
# Assay: qHTS assay for re-activators of p53 using a Luc reporter; note: nearly all actives have a fitted effect of over 45% in size
# Settings: H1299 p53-A138V BP100-luciferase reporter, luminescence, 24 h; series mostly up to 92.2 µM
# How it was run: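 H1299 (p53-null), stable ts p53-A138V + BP100-Luc; 1000 cells/well, Opti-MEM/10% FBS; cpd 4 pt, 1:5; 24 h, 37 deg C, 5% CO2; detection reagent 10 min RT; luminescence.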
# Potency is the fitted concentration of half-maximal effect; tags give direction and shape of the fitted curve.
row,Compound,Potency
1,Cc1cc(NC(c2cccnc2)c2c(C)[nH]c3ccccc23)no1 (centres undefined),"inconclusive [activator, single point]"
2,Fc1ccc(-c2csc(-c3cccnc3)n2)cc1F,"inconclusive [activator, single point]"
3,Cc1sc2c(c1C)CN(C(C)(C)C)CN2C(=O)c1ccccc1,"inconclusive [activator, partial curve, poor fit]"
4,Cc1ccc(OCCCNCCO)c(Br)c1,"inconclusive [activator, partial curve, poor fit]"
5,CCOC(=O)C1(Cc2cccc(OC)c2)CCCN(C(=O)c2ccc(OC)o2)C1 (centres undefined),"inconclusive [activator, full curve, poor fit]"
6,CC(NC(=O)C1CC=CCC1C(=O)O)C1CC2CCC1C2 (centres undefined),inactive
7,CSc1ncc(CN2CCCC(C(=O)c3ccc(C(C)(C)C)cc3)C2)cn1 (centres undefined),"inconclusive [activator, single point]"
8,Cc1no[n+]([O-])c1COc1cccc(/C=N/Nc2nncn2N)c1,"inconclusive [activator, single point]"
9,O=C(NCCO)c1nc(NCCO)c2ccccc2n1,"inconclusive [activator, single point]"
10,CC1CCCC(C)N1C(=O)CSc1nnc(-c2cccs2)o1 (centres undefined),"inconclusive [activator, full curve, poor fit]"
11,NC(=O)c1ccc(NC(=O)C2CCCO2)cc1 (centres undefined),inactive
12,Cc1c(C(=O)NCCC2=CCCCC2)cccc1[N+](=O)[O-],"inconclusive [activator, single point]"
13,O=C(NC1CCCC1)c1cc(-c2ccc(F)cc2)on1,"inconclusive [activator, full curve, poor fit]"
14,O=C(COc1ccccc1)Nc1ccc(S(=O)(=O)NCc2ccco2)cc1,"inconclusive [activator, single point]"
15,COc1cc(-c2noc(CCCC(=O)NCc3ccccc3)n2)cc(OC)c1OC,inactive
16,Cc1ccc(OCCN2CCOCC2)cc1C,"inconclusive [activator, partial curve, poor fit]"
17,COc1ccc(-c2nc3c4ccccc4ccn3c2CN2CCOCC2)cc1OC,inactive
18,CCC(c1nnnn1C(C)(C)C)N1CCN(C2CCCC2)CC1 (centres undefined),"inconclusive [activator, partial curve, poor fit]"
19,CSc1ccccc1NC(=O)c1noc2c1CCC2,"inconclusive [activator, full curve, poor fit]"
20,O=C(/C=C/c1ccco1)Nc1cccc2cccnc12,"inconclusive [activator, partial curve, poor fit]"
21,CC(C)(C)c1ccc(-c2nnc(N)o2)cc1,inactive
22,COc1ccc(N(CC(=O)NC2CCCCC2)S(=O)(=O)c2cccnc2)cc1,"inconclusive [activator, full curve, poor fit]"
23,O=C(/C(=C\c1ccccc1)c1nc2ccccc2[nH]1)c1ccc(Cl)cc1,"inconclusive [activator, partial curve, poor fit]"

row,Compound,Potency
1,O=C(/C=C/c1ccccc1Cl)OCC(=O)c1ccc[nH]1,"inconclusive [activator, partial curve, poor fit]"
2,COc1ccc(CN2CC(C(=O)NCCN3CCOCC3)CC2=O)cc1 (centres undefined),"inconclusive [activator, single point]"
3,C/C(=N\NC(=O)c1nc2ccccn2c1C)c1ccco1,inactive
4,c1ccc(-c2nnc3sc(Cc4cccs4)nn23)cc1,"inconclusive [activator, single point]"
5,Cc1ccc2c(CN3CCC(C)CC3)cc(=O)oc2c1C,inactive
6,Cc1c(C(=O)Nc2ccccc2)sc2nc(-c3ccccc3)cn12,"inconclusive [activator, partial curve, poor fit]"
7,Clc1cc(Cl)c2nc(N3CCCCC3)sc2c1,"inconclusive [activator, single point]"
8,Cc1cc(C)cc(NC(=O)CSc2nnc(-c3ccccc3C)o2)c1,"inconclusive [activator, partial curve, poor fit]"
9,COCc1cc(=O)n2[nH]c(-c3ccccc3)cc2n1,"inconclusive [activator, full curve, poor fit]"
10,CCOC(=O)c1cc2c(nc1N)CC(C)(CC)OC2 (centres undefined),inactive
11,CC(C)N1CC=C2C(C#N)=C(N)C(C#N)(C#N)[C@H](c3ccoc3)[C@H]2C1,inactive
12,C/C(=N\NC(N)=S)C12CC3CC(CC(C3)C1)C2,inactive
13,CC(C)[C@H](NC(=O)OC(C)(C)C)c1nnc(SCc2cccc(F)c2)o1,"inconclusive [activator, single point]"
14,CCc1ccc(Nc2ccc(C(N)=O)cc2[N+](=O)[O-])cc1,inactive
15,Cc1cc(NC(=O)c2nn(C)c(C)c2Br)no1,"inconclusive [activator, full curve, poor fit]"
16,O=c1cc(CSc2nnc(-c3cccs3)n2Cc2ccccc2)nc2sc3ccccc3n12,inactive
17,COc1ccc(-c2nnc(-c3cccnc3)o2)cc1,"inconclusive [activator, partial curve, poor fit]"
18,COc1ccc(Oc2cc(C)c3ccccc3n2)cc1,"inconclusive [activator, single point]"
19,Cc1ccnc(NC(=O)Nc2ccc3c(c2)N(C)C(=O)CS3)c1,"inconclusive [activator, full curve, poor fit]"
20,CCOC(=O)NC(C(Cl)(Cl)Cl)S(=O)(=O)c1ccccc1 (centres undefined),"inconclusive [activator, partial curve, poor fit]"
21,O=C(NCCCN1CCOCC1)NC1CCCCC1,"inconclusive [activator, single point]"
22,Cc1cc(C)c(C)c(N=Nc2nc3ccccc3n2C)c1C,"inconclusive [activator, partial curve, poor fit]"
23,S=C(Nc1nc2c(s1)CCCC2)NC1CC1,"inconclusive [activator, partial curve, poor fit]"

row,Compound,Potency
1,Clc1ccc2nc(CN3CCCc4ccccc43)cn2c1,"inconclusive [activator, single point]"
2,CCCn1nnnc1NCc1ccccc1OCc1ccc(F)cc1,inactive
3,Cc1ccc(O)c(C(=O)/C=C/c2ccc3c(c2)OCCCO3)c1,"inconclusive [activator, full curve, poor fit]"
4,CCCCn1c(NC(=O)c2ccccc2)nc2ccccc21,"inconclusive [activator, partial curve, poor fit]"
5,Nc1cc(N)nc(SCCOc2ccccc2)n1,"inconclusive [activator, partial curve, poor fit]"
6,Cc1sc(NC(=O)c2ccc(Br)s2)c(C(N)=O)c1C,"inconclusive [activator, partial curve, poor fit]"
7,O=C(N/N=C/c1c(Cl)[nH]c2ccccc12)c1sc2ccccc2c1Cl,"inconclusive [activator, partial curve, poor fit]"
8,O=C(/C=C/c1cccs1)Nc1nccs1,"inconclusive [activator, single point]"
9,CCC(=NCc1ccccc1)c1c(C(F)(F)F)[nH]n(-c2nc3ccccc3s2)c1=O,"inconclusive [activator, partial curve, poor fit]"
10,COc1ccc(CNC(=O)c2csc3c2CCCC3)cc1,inactive
11,O=[N+]([O-])c1cc(-c2cnc3ccccc3n2)ccc1Oc1ccc(F)cc1,"inconclusive [activator, partial curve, poor fit]"
12,Cc1ccc2nc(/C=C/c3cccc(F)c3)ccc2c1,"inconclusive [activator, partial curve, poor fit]"
13,COCCn1c(=S)[nH]c2sc3c(c2c1=O)CCC(C)C3 (centres undefined),"inconclusive [activator, single point]"
14,Cc1cccc(C)c1NC(=O)C(c1cccs1)N(Cc1ccco1)C(=O)Cn1nnc2ccccc21 (centres undefined),"inconclusive [activator, full curve, poor fit]"
15,Clc1ccc(OCc2nnc(-c3ccccc3Br)o2)cc1,inactive
16,Cc1cc(C)c(C(=O)COC(=O)CCn2c(C)csc2=O)cc1C,"inconclusive [activator, partial curve, poor fit]"
17,COc1cccc(Nc2ncccc2C(=O)O)c1,"inconclusive [activator, partial curve, poor fit]"
18,CCOc1ccc2c(c1)C(=NNC(=O)c1ccncc1)c1cc(OCC)ccc1-2,active: 39.8 µM
19,O=C(NCC(c1ccco1)N1CCN(c2ccccc2F)CC1)OCc1ccccc1 (centres undefined),"inconclusive [activator, partial curve, poor fit]"
20,Oc1ccc(N=Nc2nccs2)c(O)c1,"inconclusive [activator, single point]"
21,CCOc1ccc(C(O)Cc2nc3ccccc3n2C)cc1 (centres undefined),"inconclusive [activator, partial curve, poor fit]"
22,C/C=C/C(=O)OCC(=O)Nc1nc2ccc(C)cc2s1,"inconclusive [activator, single point]"
23,Cc1ccc(NC(=O)CNC(=O)Cc2cccc3ccccc23)nc1,inactive
